The full ranking holds about 33,000 sequences; the median of “E-score (-0.5 to 0.5)” is about -0.04, and the highest 2% start at about 0.36. Some of the results follow.
biological target: T1, Hmlalpha2 (UniProt P0CY09); assay: PBM E-score (8-mer binding enrichment) (E-score (-0.5 to 0.5)); higher = stronger / more preferred TF binding; most listed sequences are background and not binding sites; settings: protein concentration: 200 nM; construct: GST-full length
T1 sequence: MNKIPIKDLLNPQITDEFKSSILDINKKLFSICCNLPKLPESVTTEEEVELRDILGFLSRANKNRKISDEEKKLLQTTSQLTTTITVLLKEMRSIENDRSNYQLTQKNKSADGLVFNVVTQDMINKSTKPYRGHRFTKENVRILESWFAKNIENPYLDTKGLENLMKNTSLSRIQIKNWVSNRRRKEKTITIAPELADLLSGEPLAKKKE
Summary of the method: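 Full-length yeast transcription factors or their DNA-binding domains, GST-tagged and expressed with PURExpress, were applied at about 100-200 nM to universal all-10-mer Agilent arrays. These arrays had been made double-stranded by primer extension on fresh or once-stripped slides. Detection used fluorescent anti-GST, normalisation used masliner, and E-scores for ungapped eight-base words pooled with reverse complements came from the Universal PBM Analysis Suite.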

Row | Sequence | PBM E-score
1 | CACGGTGG | 0.0263
2 | CTTCACAA | 0.0306
3 | ATCGACAC | 0.212
4 | ACGGTGAC | -0.0477
5 | CCACGCTC | -0.335
6 | ACAATGAG | -0.062
7 | GCTGGTCA | -0.185
8 | ATATGCAG | -0.177
9 | CCTCAAAG | -0.142
10 | AGGGTCGA | -0.187
11 | AGCAGTGA | 0.0703
12 | CCGTTTAG | -0.0825
13 | AACTGTCT | -0.0823
14 | ATGGTGGA | -0.173
15 | ACCTCAGT | -0.0509
16 | AGTGAGTC | -0.148
17 | AAGCGTTA | -0.0682
18 | ATTTAGAG | 0.0168
19 | GCCCTTCC | -0.276
20 | CAATTTGC | -0.138
21 | GACGCCAC | -0.189
22 | ATCGGACC | -0.227
23 | CCCCCAAC | -0.224
24 | GTAGCAGA | 0.0249
25 | ACCCCGCG | -0.131

Row | Sequence | PBM E-score
26 | TAGAACCA | 0.0563
27 | AAGGAAGC | -0.375
28 | GCAAGATA | 0.00488
29 | CCTGTGGA | -0.332
30 | GTGCTGGA | -0.0877
31 | GTAATAAC | 0.392
32 | GAGGTTTA | -0.016
33 | AGAGGTGC | -0.212
34 | CTAGATGA | -0.172
35 | CAGGCACA | -0.166
36 | GCGACCGC | -0.229
37 | ACGCTAAC | 0.127
38 | ATGCCGGC | 0.0142
39 | ACCTTCCA | -0.0872
40 | AGGGCTTA | -0.188
41 | ACGACCTA | -0.0288
42 | AATTCGCT | 0.122
43 | ATGCAGTG | 0.12
44 | AGCGTGAG | -0.18
45 | AATGTGGT | 0.163
46 | CGGACTCA | -0.159
47 | AATAACCC | -0.0911
48 | TAACAAGA | 0.377
49 | AAATACAG | 0.172
50 | GGACTCCC | -0.212

Row | Sequence | PBM E-score
51 | GATATGAC | -0.00016
52 | AGACCTAA | -0.153
53 | CAATCCCC | -0.072
54 | TAATACGA | 0.265
55 | TCTAGAAA | 0.0279
56 | AGCGCTAA | 0.0618
57 | CTCTATAC | -0.00073
58 | ATTAGTGG | 0.0919
59 | AAGTTAAG | 0.0528
60 | ACCGTTTA | 0.0365
61 | CATTAGGC | -0.103
62 | CATACGAC | 0.0792
63 | CTCCAACA | 0.224
64 | ATACTCAA | 0.151
65 | AGTTCAAC | 0.219
66 | CATGCCGA | 0.0781
67 | AGTCTACA | 0.169
68 | AGGGGGCG | -0.3
69 | CAACTGTG | 0.152
70 | ATAGAATG | 0.0643
71 | CGCGAGCA | -0.252
72 | CCCTAAAC | -0.0769
73 | TGCTCGAA | -0.0384
74 | GTTTCTGA | -0.0402
75 | AGACTAAC | -0.102

Row | Sequence | PBM E-score
76 | ACCGTAAC | -0.163
77 | AACCAGAT | -0.0675
78 | CGGGTCTC | -0.112
79 | GGGAGTTA | -0.0673
80 | CGGACCAA | 0.0624
81 | CTAAACGC | 0.0917
82 | TACCACCA | -0.177
83 | ATTTCTGA | -0.0365
84 | GCATGGGC | -0.183
85 | AAGCCCCC | -0.343
86 | GGGGCAAC | -0.213
87 | AGTTTTCG | 0.041
88 | ATACTTAG | 0.0132
89 | GGCCTGCA | -0.339
90 | CCCTCATA | -0.228
91 | ACCTATAC | 0.164
92 | ATTGTAAA | 0.374
93 | ATTCAACG | 0.196
94 | ATGGACTC | -0.146
95 | TATAGATA | -0.0163
96 | CTGGGTCA | -0.137
97 | AGTGGTGG | -0.204
98 | GGCGGCAC | -0.325
99 | CCCTGTTA | 0.188
100 | GAGCTGTA | -0.138

Row | Sequence | PBM E-score
101 | CATGTGCG | 0.12
102 | AAATAAAT | 0.205
103 | AGGGGCTA | -0.148
104 | TCACGCAA | 0.243
105 | CGTCACTC | -0.174
106 | CGTGCCAA | -0.066
107 | GTCTGCCA | -0.221
108 | AATCTGCC | -0.0678
109 | AAATTAAA | 0.224
110 | ACTGGCCA | -0.137
111 | GTCTCCGA | -0.14
112 | ACGAAACA | 0.113
113 | GCATCAGA | 0.174
114 | AACGTCTT | 0.0322
115 | GTACCCTA | -0.0877
116 | TATGTGCA | 0.103
117 | CGCTGACG | -0.21
118 | TATAAACA | 0.358
119 | ACACCTGT | 0.0454
120 | GCCGCTCC | -0.265
121 | CAGTTTGA | -0.0778
122 | AAGGCGCT | -0.105
123 | CGCTGCAA | 0.106
124 | AATTCTCT | -0.191
125 | GTCACAAA | 0.143

Row | Sequence | PBM E-score
126 | CCCCGGAG | -0.315
127 | GATAATTA | 0.21
128 | CACTGACG | -0.0973
129 | CGCTCAAA | -0.0575
130 | CCGTTCTC | -0.21
131 | CGCAGCCG | -0.189
132 | AGAGGGTA | -0.0823
133 | AACTGCTG | -0.13
134 | AAATAGGA | 0.0479
135 | AGTGTACG | 0.175
136 | AGCTACCG | -0.257
137 | ATCCAATA | 0.0909
138 | CGTTAGCC | 0.00572
139 | TAAGCGGA | -0.131
140 | ACGCCACT | 0.0131
141 | CAGAACTA | -0.0471
142 | CCCAACCC | -0.119
143 | GATTGTGA | -0.174
144 | GAAAGGAC | -0.146
145 | GTTGAGCA | 0.111
146 | GACAGCTC | -0.251
147 | TACTCTCA | 0.103
148 | CGAAGCGC | -0.162
149 | CCGAGCCC | -0.393
150 | CGCCGGTC | -0.305

Row | Sequence | PBM E-score
151 | ATAGTTAA | 0.202
152 | AGTTTGCC | -0.133
153 | AAAATTGA | 0.0788
154 | CCCTACCA | 0.00547
155 | CTACTGTA | 0.0817
156 | TGGTCTAA | -0.107
157 | GACAGGCC | -0.143
158 | GCGGCAGA | -0.247
159 | CGAAAGGC | -0.175
160 | AGAGGACA | -0.252
161 | ATCTAACC | -0.0186
162 | GTGTCATA | 0.301
163 | CGAAGGCG | -0.254
164 | AGTTCGCA | -0.086
165 | ATCGCGAC | -0.192
166 | AACCGCAT | 0.0219
167 | CCCAACGG | -0.162
168 | CCTGAGAG | -0.386
169 | AAGCCACC | -0.269
170 | ACCCGTTC | -0.0776
171 | AATTGGCT | -0.0667
172 | ACTAAACT | -0.00206

— the supplement of paper PMC3334620
